We go through 86 sequences from the supplement of paper PMC3334620.

In all, about 33,000 sequences were measured (“E-score (-0.5 to 0.5)”: median about -0.035, highest 2% from about 0.35 on). This is one part of the list.

This test concerns the target T1, Pdr3 (UniProt P33200).
T1 sequence: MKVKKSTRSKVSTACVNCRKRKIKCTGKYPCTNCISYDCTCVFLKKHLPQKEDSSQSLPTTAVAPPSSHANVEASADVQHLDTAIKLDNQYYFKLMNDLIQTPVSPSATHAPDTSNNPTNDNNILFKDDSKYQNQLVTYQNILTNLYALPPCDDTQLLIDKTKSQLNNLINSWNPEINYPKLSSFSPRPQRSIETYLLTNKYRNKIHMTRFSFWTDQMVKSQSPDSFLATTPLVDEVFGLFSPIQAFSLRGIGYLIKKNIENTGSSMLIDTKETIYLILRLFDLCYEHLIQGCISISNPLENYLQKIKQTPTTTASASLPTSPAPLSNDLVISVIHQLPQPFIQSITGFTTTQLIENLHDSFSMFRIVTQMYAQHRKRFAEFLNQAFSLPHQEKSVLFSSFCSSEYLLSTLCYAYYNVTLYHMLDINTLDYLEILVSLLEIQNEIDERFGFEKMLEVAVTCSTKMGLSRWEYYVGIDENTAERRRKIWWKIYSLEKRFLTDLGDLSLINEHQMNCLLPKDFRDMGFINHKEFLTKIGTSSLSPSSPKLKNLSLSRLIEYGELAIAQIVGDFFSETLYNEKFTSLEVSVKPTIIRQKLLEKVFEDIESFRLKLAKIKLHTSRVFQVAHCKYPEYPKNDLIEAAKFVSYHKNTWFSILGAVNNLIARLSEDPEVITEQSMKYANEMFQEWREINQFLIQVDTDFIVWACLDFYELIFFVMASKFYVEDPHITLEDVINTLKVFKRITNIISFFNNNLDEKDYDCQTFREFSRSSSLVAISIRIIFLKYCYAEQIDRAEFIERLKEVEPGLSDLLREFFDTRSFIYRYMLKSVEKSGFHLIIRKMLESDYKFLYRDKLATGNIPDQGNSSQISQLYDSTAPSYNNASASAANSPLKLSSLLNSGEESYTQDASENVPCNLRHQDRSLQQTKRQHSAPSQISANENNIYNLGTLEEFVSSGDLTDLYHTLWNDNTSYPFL
Put plainly: PBM E-score (8-mer binding enrichment) (E-score (-0.5 to 0.5)); higher = stronger / more preferred TF binding; most listed sequences are background and not binding sites. The settings on record: protein concentration: 200 nM; construct: GST-full length. In outline: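 Masliner-normalised scans of fluorescent anti-GST signal were the basis for scoring. That signal came from GST-tagged yeast transcription factors applied at about 100-200 nM to double-stranded universal all-10-mer Agilent arrays on fresh or once-stripped slides. Each ungapped eight-base word, pooled with its reverse complement, received an E-score from the Universal PBM Analysis Suite.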
As for ACGAAAGA, the “PBM E-score” value was -0.0345. Regarding CCCGGCAG, the “PBM E-score” value stood at 0.303. The result for CAAGGATC reads -0.0745. With ACTAGATC the figure was -0.2. With ATGCGTGG the figure was -0.313; with ACCTAACG, -0.168. Consider ATCCGTGA, for which the “PBM E-score” value stood at 0.306. The result for ATCTAAGG reads -0.149; that for GACCTCGA, 0.113. With TTGAACAA, the “PBM E-score” value is -0.176.

Consider AAAGTGTA, for which the “PBM E-score” value is -0.224. With TCGCTTAA the figure was 0.0103; with AGACCGTA, -0.13; with CCCGCGAC, 0.175. The result for AGTTAGCG reads 0.0161. With CAAGCCCC the figure was -0.0333; with GAGCGGCA, 0.206. For the sequence CAGTGACA, the “PBM E-score” value was -0.196. With ATATAAAT the figure was 0.133. The result for AACCCAAA reads 0.103; that for ACTAGCTG, -0.167.

Consider GGACTCAA, for which the “PBM E-score” value was -0.0971. Regarding ATAACGAG, the “PBM E-score” value was -0.138. On to GGAACGCA, for which the “PBM E-score” value worked out at 0.275. With CACTTAGA the figure was -0.119; with GTAACAGA, 0.129; with CGTTACAA, -0.136. The result for CGTTATTC reads -0.0231.

With AGCATGTA, the “PBM E-score” value is -0.24. With GCTGAGAA the figure was -0.139. For CTTATGAC, the “PBM E-score” value was 0.0626. The result for GAATTCGA reads 0.032; that for ATAGAGAG, -0.267. With TGTTGCAA the figure was 0.0777.

On to TATGAGCA, for which the “PBM E-score” value was -0.202. For GGTATACC, the “PBM E-score” value came out at 0.123. The result for CACCGAGC reads 0.169.

In the case of GGGGACCA, the “PBM E-score” value was -0.0462.

On to AGTGTTCC, for which the “PBM E-score” value came out at 0.301. With CCATGCAC the figure was -0.0706. As to ACTTTTCC, the “PBM E-score” value was 0.269. With AAAGCGGC the figure was 0.14; with CTCTCTTA, -0.155; with CGAAGTTA, -0.0595.

As to ACTTTAAA, the “PBM E-score” value was 0.113. With AGACGTGG the figure was -0.0706; with AGTGCTCA, -0.244. With ACCGAGGT the figure was 0.169; with CGAATAAC, 0.0754; with GTGTTCAA, -0.0336. With GAGCCAGC the figure was -0.0887; with CCTCACCG, -0.0232. As for CCCCCGAC, the “PBM E-score” value was 0.0417.

As for AATCCTGT, the “PBM E-score” value came out at 0.00889. As to CAAGCTCA, the “PBM E-score” value was -0.0814. The result for AGCGGTGG reads 0.0232; that for CGATTATA, 0.0681. The result for AAGTCCTC reads -0.0742. With ACGTCGAT the figure was -0.0231; with ACTAACTC, -0.138; with ACTTGTCT, -0.164. Turning to AGACGGGA, the “PBM E-score” value is 0.187. With ATTCTCCA the figure was -0.113; with CCCCCACA, -0.401. With CCACGCCC the figure was -0.00205; with ACCAATCA, 0.0165; with GTCTTTCA, -0.193. With ACGTTTGC the figure was -0.0449; with ACAGACAT, 0.042; with TACCATGA, -0.289. As to AGGGCCCG, the “PBM E-score” value was found to be 0.182.

Regarding CTGATAAG, the “PBM E-score” value was -0.0916. CAATTAGC: the “PBM E-score” value was -0.0494. For the sequence CCGTCATA, the “PBM E-score” value came to 0.251. With ACACTTTA the figure was 0.00159; with ATCTTTCG, -0.00446; with AACAGTGG, -0.0238. With CCTACCCC the figure was 0.0218; with GATAGTAC, 0.0506; with CTGCCGAC, 0.152. With ACATAAAA the figure was -0.206. In the case of AAATCAGA, the “PBM E-score” value is -0.0593. The result for CAACCTGG reads 0.0391. The result for CCCCGGAA reads 0.421. With GCGAAGTA the figure was 0.09; with ACCGGGGC, 0.224.
